# In the supplement of paper PMC4166925:
# ± gives the standard deviation of the averaged measurements. In all, about 33,000 sequences were measured (“E-score (dimensionless, -0.5 to 0.5)”: median about -0.049, highest 2% from about 0.37 on). This is one part of the list.
# System: T1, PmTbr T-box DNA-binding domain (GST fusion)
# T1 sequence: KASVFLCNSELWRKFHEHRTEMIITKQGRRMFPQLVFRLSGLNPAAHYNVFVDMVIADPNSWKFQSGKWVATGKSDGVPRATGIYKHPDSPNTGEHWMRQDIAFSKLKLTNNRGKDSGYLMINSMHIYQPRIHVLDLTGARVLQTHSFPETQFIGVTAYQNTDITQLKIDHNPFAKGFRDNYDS
# Assay: PBM E-score of 8-mer (E-score (dimensionless, -0.5 to 0.5)); Tbr is Tbrain of the sea star Patiria miniata (Pm) or the sea urchin Strongylocentrotus purpuratus (Sp); higher = stronger binding preference; most listed sequences are background and not binding sites
# Details: the construct has about 5 more residues each side
# Method: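 Universal protein-binding microarray (Agilent AMADID 016060, 60-bp probes with a 35-bp variable region) incubated with 200 nM GST-fused Patiria miniata Tbr T-box DNA-binding domain (residues 272-466) in PBS pH 7.5. Scored for every ungapped 8-mer (given with its reverse complement) by the Universal PBM Analysis Suite as E-score (modified Wilcoxon-Mann-Whitney enrichment, range -0.5 to 0.5; >0.45 counts as bound) and Z-score of median probe intensity. Two replicate arrays (datasets 1 and 2).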
# 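Further: 200 nM protein in PBS on universal arrays averaged over duplicate arrays.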
row,Sequence,PBM E-score of 8-mer
1,CCCGAAAG,-0.022 ± 0.025
2,CATGTGGC,0.0236 ± 0.011
3,AGATCACA,0.278 ± 0.061
4,CTAGCCGC,0.0347 ± 0.027
5,CCACTTAC,0.201 ± 0.0076
6,AGAGATCC,-0.189 ± 0.011
7,GGCGCGCC,0.233 ± 0.0099
8,ACTACAAT,-0.018 ± 0.002
9,ATTTCCCA,0.0349 ± 0.076
10,ATAACACG,0.325 ± 0.05
11,AGGCATCC,-0.291 ± 0.054
12,GGAAGTTA,-0.0847 ± 0.059
13,AATCAAAC,-0.0423 ± 0.03
14,GGTTCATA,0.0267 ± 0.028
15,CCCCCCGG,-0.176 ± 0.025
16,CTGTGAAG,0.266 ± 0.023
17,CCCTGTGA,0.122 ± 0.013
18,CCTGTTAC,0.164 ± 0.049
19,CGAACAGC,0.0465 ± 0.011
20,CGATCTAC,-0.13 ± 0.012
21,GTTGCTAA,0.285 ± 0.025
22,CCAACAGG,-0.00822 ± 0.0075

row,Sequence,PBM E-score of 8-mer
1,CTATATAC,0.14 ± 0.028
2,ACCTGATA,0.157 ± 0.032
3,CCCGTTCA,0.0884 ± 0.064
4,AAAGGGGG,-0.209 ± 0.04
5,TTGACAAA,0.329 ± 0.0096
6,GGTACTAA,-0.0102 ± 0.088
7,ACAATCGT,0.00782 ± 0.055
8,GTGGCTAA,0.0196 ± 0.032
9,ACGATCCC,0.0437 ± 0.11
10,CCAAGCGG,-0.178 ± 0.068
11,AGAGCAAG,-0.0904 ± 0.043
12,ACACGAGT,0.0609 ± 0.031
13,CGTCCATA,-0.0391 ± 0.017
14,GCGGTATA,-0.199 ± 0.11
15,GGCCACCA,-0.0619 ± 0.14
16,CGGAATTA,-0.203 ± 0.024
17,AGAGCAGG,-0.149 ± 0.13
18,TATCGAGA,-0.0253 ± 0.043
19,ACAAGACT,0.0667 ± 0.0037
20,CCCAGGGG,-0.162 ± 0.093
21,GGTAGCCA,-0.139 ± 0.037
22,GGTTGCGA,0.281 ± 0.031

row,Sequence,PBM E-score of 8-mer
1,CGGGGTTA,-0.195 ± 0.071
2,AATGTTGC,0.0674 ± 0.052
3,ATAGCAAT,-0.0274 ± 0.049
4,AAGTTGCG,0.235 ± 0.052
5,CCCGCTCC,-0.0513 ± 0.051
6,CAGGCACG,-0.104 ± 0.0019
7,AGATTGGC,0.0392 ± 0.026
8,AAGGCCGC,0.0907 ± 0.032
9,CTTGATTA,0.00212 ± 0.086
10,ATAGAGTG,0.0802 ± 0.04
11,CTATATCA,-0.0603 ± 0.035
12,GGTGGACA,-0.124 ± 0.0056
13,AAATTCGG,-0.27 ± 0.012
14,AAAATGTA,0.135 ± 0.081
15,ACGTTCGA,-0.177 ± 0.025
16,AGATGAAC,-0.2425 ± 0.0013
17,ATGACCAG,-0.119 ± 0.011
18,CAGGATAC,-0.146 ± 0.043
19,CTGTGTAA,-0.116 ± 0.0057
20,TAGGGAAA,-0.173 ± 0.033
21,AATCATAT,-0.256 ± 0.0089
22,AAGCCTCC,-0.181 ± 0.047

row,Sequence,PBM E-score of 8-mer
1,GTGACAAC,0.4452 ± 0.0036
2,CTTTCATA,-0.0852 ± 0.022
3,AAAATAGG,-0.0632 ± 0.036
4,CCGGCGCC,0.188 ± 0.06
5,GAGATGAA,-0.168 ± 0.058
6,GCTAGAGA,0.0101 ± 0.053
7,ACGGTTCG,0.147 ± 0.043
8,GAAAGACC,-0.0227 ± 0.0037
9,CGACTCTC,-0.1842 ± 0.00057
10,TACACAAA,-0.0427 ± 0.021
11,AACTACAC,0.169 ± 0.068
12,CCGCCAAA,0.176 ± 0.012
13,CCACCCAG,-0.239 ± 0.032
14,AATAGCTA,-0.155 ± 0.065
15,GCTCTTAA,-0.281 ± 0.03
16,GGGGTAGA,-0.22 ± 0.073
17,CCTGTGAA,0.306 ± 0.0045
18,GTATGGAA,-0.238 ± 0.057
19,GATAGTCA,0.0183 ± 0.041
20,ATCTATAA,-0.0367 ± 0.0086
